{"sequences": {"note": "By UniProt entry, the sequences of proteins in these tests, tags left out.", "UniProt P10275": "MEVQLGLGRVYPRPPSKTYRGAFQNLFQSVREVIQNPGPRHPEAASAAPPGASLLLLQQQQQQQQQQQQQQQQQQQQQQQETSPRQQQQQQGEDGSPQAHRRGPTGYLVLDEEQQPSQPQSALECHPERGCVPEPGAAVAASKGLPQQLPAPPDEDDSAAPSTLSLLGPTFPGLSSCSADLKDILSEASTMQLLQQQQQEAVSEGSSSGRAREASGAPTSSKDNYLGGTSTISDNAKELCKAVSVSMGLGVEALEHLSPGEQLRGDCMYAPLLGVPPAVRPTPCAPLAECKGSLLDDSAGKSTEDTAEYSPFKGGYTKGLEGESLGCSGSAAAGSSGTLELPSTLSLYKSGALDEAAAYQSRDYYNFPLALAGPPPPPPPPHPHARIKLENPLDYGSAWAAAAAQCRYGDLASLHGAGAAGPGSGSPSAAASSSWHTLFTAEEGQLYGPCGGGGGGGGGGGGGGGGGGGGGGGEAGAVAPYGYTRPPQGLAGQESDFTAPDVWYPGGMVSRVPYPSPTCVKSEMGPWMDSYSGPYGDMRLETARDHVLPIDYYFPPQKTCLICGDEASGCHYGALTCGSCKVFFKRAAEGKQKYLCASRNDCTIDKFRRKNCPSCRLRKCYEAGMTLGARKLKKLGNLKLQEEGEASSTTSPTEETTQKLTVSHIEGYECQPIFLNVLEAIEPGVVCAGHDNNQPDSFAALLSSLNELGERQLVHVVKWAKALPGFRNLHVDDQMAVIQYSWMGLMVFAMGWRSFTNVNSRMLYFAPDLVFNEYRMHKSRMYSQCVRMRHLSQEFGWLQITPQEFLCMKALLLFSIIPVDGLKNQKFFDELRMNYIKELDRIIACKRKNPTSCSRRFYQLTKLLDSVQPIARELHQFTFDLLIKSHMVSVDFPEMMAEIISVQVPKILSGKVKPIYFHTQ"}, "source": "paper PMC3795072", "binders": {"B1": {"name": "VP16-fused PAK6 Δ190 deletion mutant, pACT vector (domain or fragment, UniProt Q9NQU5 191-681)", "chain": "RCLQLGACLQSSPPGASPPTGTNRHGMKAAKHGSEEARPQSCLVGSATGRPGGEGSPSPKTRESSLKRRLFRSMFLSTAATAPPSSSKPGPPPQSKPNSSFRPPQKDNPPSLVAKAQSLPSDQPVGTFSPLTTSDTSSPQKSLRTAPATGQLPGRSSPAGSPRTWHAQISTSNLYLPQDPTVAKGALAGEDTGVVTHEQFKAALRMVVDQGDPRLLLDSYVKIGEGSTGIVCLAREKHSGRQVAVKMMDLRKQQRRELLFNEVVIMRDYQHFNVVEMYKSYLVGEELWVLMEFLQGGALTDIVSQVRLNEEQIATVCEAVLQALAYLHAQGVIHRDIKSDSILLTLDGRVKLSDFGFCAQISKDVPKRKSLVGTPYWMAPEVISRSLYATEVDIWSLGIMVIEMVDGEPPYFSDSPVQAMKRLRDSPPPKLKNSHKVSPVLRDFLERMLVRDPQERATAQELLDHPFLLQTGLPECLVPLIQLYRKQTSTC"}}, "target": "GAL4 DNA-binding domain-fused full-length androgen receptor (AR), pBIND vector (UniProt P10275)", "assay": "two-hybrid; mammalian two-hybrid in HEK 293 cells: VP16-PAK6 full length or deletion mutants (pACT), GAL4 DBD-AR (pBIND), pG5-Luc reporter, renilla control; androgen treatment not stated for this panel", "note": "These are yes or no findings as the source states them, for the method shown. Some binding calls cover weakened binding; strength is not graded here. Where a sequence is shown, tags or fusion partners need not be part of it."}
{"binder": "B1", "values": [{"measurement": "binding", "value": "binds"}]}
